Measurements published in PubChem BioAssay AID686978 (National Center for Advancing Translational Sciences (NCATS), 2013).
Among all 420,000 compounds or so, about 64,000 (15%) were called active. The inconclusive results got no clear call from the source; some entries with a clear call stand among them for comparison. Calls follow the shape of the dose curve; as a rule, active = well fitted inhibition curve with a large enough effect; inconclusive = small, poorly fitted or top-dose-only effect; inactive = flat fitted curve, though single readings scatter. No potency is given beside an inconclusive call; the fits are too rough.

Assay: qHTS for Inhibitors of human tyrosyl-DNA phosphodiesterase 1 (TDP1): qHTS in cells in absence of CPT; also: nearly all actives have a fitted effect of over 55% in size
Conditions: DT40 Tdp1-/- hTDP1 cells, no CPT, ATP luminescence, 48 h; activity change, negative = growth inhibition: at 46.2 µM (top of the series) unless noted
Procedure, shortened: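 A cellular qHTS used chicken DT40 cells lacking endogenous Tdp1 but carrying stably transfected human TDP1. Compounds were applied without camptothecin, and cell growth kinetics were judged by ATP-dependent luminescence after ≥48 hr.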
% is scaled to controls: 0 for no effect and ±100 for the full control effect; potency is read from the fitted curve at half-maximal effect; tags tell the direction and shape of the fitted curve.

Structure (SMILES)	Potency	activity change, negative = growth inhibition
CC(C)(C)CC(=O)N1CCN(c2ccc(S(=O)(=O)N3CCOCC3)cc2[N+](=O)[O-])CC1	inconclusive [inhibitor, single point]	–
Cc1cc(-c2ccccc2)n(-c2ccc(C(=O)N3CCN(c4ncccn4)CC3)cc2)n1	inconclusive [inhibitor, single point]	–
O=C(c1ccc(Cl)c(S(=O)(=O)N2CCCCCC2)c1)N1CCCC(C(F)(F)F)C1 (stereo unspecified)	inconclusive [inhibitor, single point]	–
CCCCCC(=O)Nc1nc(C)c(-c2csc(Nc3cc(Cl)ccc3OC)n2)s1	active: 18.4 µM	–
O=C(Nc1cccc(Cl)c1)c1ccc2c(=O)n3c(nc2c1)CCCCC3	inconclusive [inhibitor, single point]	–
Cn1nccc1C(=O)N1CCN(S(=O)(=O)c2ccc(Br)s2)CC1	inactive	–
COc1ccc(C(=O)Oc2ccc(/C=N/NC(=O)Cc3ccc([N+](=O)[O-])cc3)cc2)cc1	inactive	–
COc1cccc(/C=c2\s/c(=C\C(=O)C(C)(C)C)[nH]c2=O)c1	inconclusive [inhibitor, single point]	–
CC1(c2nnc(Cc3ccccc3)o2)CC(c2ccc(C#N)cc2)=NO1 (stereo unspecified)	inconclusive [inhibitor, single point]	–
Cc1ncc(CSCC(=O)Nc2cc(C(F)(F)F)ccc2Cl)c(CO)c1O	inconclusive [inhibitor, partial curve]	–
COc1ccccc1C(=O)OCc1ccc2sc(C)nc2c1	–	inconclusive: -30.9% [inhibitor]
COc1ccc(OC)c(S(=O)(=O)NCCC2=CCCCC2)c1	inconclusive [inhibitor, single point]	–
COc1ccc2cc(C(=O)Nc3ccc(O)cc3)sc(=O)c2c1OC	–	inconclusive: -33.7% [inhibitor]
CCOC(=O)CC(Nc1nc(N2CCOCC2)nc(N2CCOCC2)n1)c1ccccc1Cl (stereo unspecified)	inconclusive [inhibitor, partial curve, poor fit]	–
O=C(NCc1ccccn1)c1cccc(S(=O)(=O)Nc2ccc(F)cc2)c1	inactive	–
O=C(NCc1ccccc1Cl)c1csc(COCCO)n1	inactive	–
COC(=O)N(C)C[C@H]1OCc2cnnn2CCCC(=O)N([C@H](C)CO)C[C@H]1C	inactive	–
O=C(NCC(O)c1ccc([N+](=O)[O-])cc1)C1=COCCO1 (stereo unspecified)	inactive	–
CCOc1ccc(/C=C/C2=CC(C)(C)NC(=S)N2)cc1	inconclusive [inhibitor, single point]	–
CCc1ccc(CN(Cc2ccco2)C(=O)c2ccccc2Cl)cc1	active: 20.6 µM	–
CCc1ccccc1NC(=O)Nc1nnc(N2CCCC2)s1	inactive	–
COCc1cc(=O)n2[nH]c(C(C)(C)C)cc2n1	inactive	–
Cc1ccc2c(Cl)c(C(=O)NCCc3ccccc3)sc2c1	inconclusive [inhibitor, single point]	–
COc1ccc(NCc2ccsc2)cc1	inactive	–

Structure (SMILES)	Potency	activity change, negative = growth inhibition
Cc1ccc(C)c(Cn2c(=O)n(Cc3ccccc3)c(=O)c3c(C)c(C)sc32)c1	inactive	–
CCCCCCCCNS(=O)(=O)CCNC1CCCCC1	inconclusive [inhibitor, single point]	–
O=C(CSc1nc2ccccc2s1)NC1CCCc2ccccc21 (stereo unspecified)	inconclusive [inhibitor, partial curve, poor fit]	–
CCc1c(C)c(C#N)c2nc3ccccc3n2c1NCc1ccccn1	inactive	–
CCOC(=O)CCn1nc(-c2ccc(C)cc2)c2ccccc2c1=O	inconclusive [inhibitor, full curve]	–
Cc1cc(NC(=O)Nc2cccc3ccccc23)no1	inconclusive [inhibitor, single point]	–
COc1ccc(C(=O)OCC(O)COC(=O)c2ccc(OC)cc2)cc1	inconclusive [inhibitor, single point]	–
O=C(Cc1ccc(Cl)c(Cl)c1)Nc1ccccc1N1CCCC1	inconclusive [inhibitor, single point]	–
CCn1nc(C)c(Oc2ccccc2O)c1C	inconclusive [inhibitor, partial curve]	–
CCn1c(=O)c(CCC(=O)NCCN2CCOCC2)c(C)c2c(C)nn(-c3cccc(C)c3)c21	active: 16.4 µM	–
COc1cc(NC(=O)Cn2c(=O)n(Cc3ccccc3OC)c(=O)c3cccnc32)cc(OC)c1	inconclusive [inhibitor, single point]	–
O=C(C1CCCCC1)N1C[C@@H](O)[C@H](n2cc(C3CC3)nn2)C[C@@H]1c1ccc(Cl)cc1	inconclusive [inhibitor, single point]	–
Cc1cc2nnc(SCC(=O)N3C(C)CCCC3C)n2c(N)n1 (stereo unspecified)	inconclusive [inhibitor, single point]	–
Cn1nnnc1SCC(=O)Nc1sccc1C(N)=O	inactive	–
Cc1ccc(C(=O)COC(=O)c2cc(-c3ccccc3)nc3ccccc23)cc1C	inactive	–
OCCNc1nc(N2CCN(c3ccccc3)CC2)nc2ccccc12	inconclusive [inhibitor, single point]	–
C/C(=N\NC(=O)c1ccoc1C)c1cccc2ccccc12	inconclusive [inhibitor, single point]	–
CC(=O)c1cccc(NC(=O)C2CCN(S(=O)(=O)c3ccc(F)cc3)CC2)c1	inconclusive [inhibitor, partial curve]	–
COc1ccc(OC)c(NC(=O)Nc2nnc(COCCO)s2)c1	inactive	–
COC(=O)c1ccc2[nH]c3cccc(/C(=C/c4ccccc4)c4ccccc4)c3c2c1	inconclusive [inhibitor, single point]	–
CC(=O)Nc1ccc(S(=O)(=O)N2CCc3ccccc3C2)cc1	inconclusive [inhibitor, partial curve]	–
Cc1ccc(C)c(N2CCN(S(=O)(=O)c3ccc4oc(=O)c5ncn(C)c5c4c3)CC2)c1	inconclusive [inhibitor, single point]	–
Cc1c(C(=O)NCc2ccc(C(C)C)cc2)sc(=O)n1Cc1ccc(S(=O)(=O)N(C)C)cc1	active: 9.2 µM	–
Cn1c(=O)c2cc(NC(=S)NC3CC3)ccc2n1C/C=C/c1ccccc1	inactive	–

Structure (SMILES)	Potency	activity change, negative = growth inhibition
C=C(C)C1CC=C(CN2CCN(Cc3ccccc3)CC2)CC1 (stereo unspecified)	inconclusive [inhibitor, single point]	–
CCNc1nc(NCC)nc(N(C)n2cnnc2)n1	–	inconclusive: -6.42% [inhibitor]
O=C(c1cccc(Cl)c1)N1CCN(C2CCCCCC2)CC1	inconclusive [inhibitor, single point]	–
CC1(C)CC2CC(C)(CN2C(=O)COC(=O)c2ccc(NC(=O)CC#N)cc2)C1 (stereo unspecified)	inconclusive [inhibitor, single point]	–
CCCNC(=O)NC(C)C12CC3CC(CC(C3)C1)C2 (stereo unspecified)	inconclusive [inhibitor, single point]	–
O=C(CSC1=NCCS1)N1CCN(c2ccc(Cl)cc2)CC1	inconclusive [inhibitor, partial curve]	–
COc1cccc(C(=O)COC(=O)CCC(=O)c2ccccc2)c1	inactive	–
CCCCCCCC/C=C\CCCCCCCC(=O)N[C@@H](CO)Cc1ccc(O)cc1	active: 10.6 µM	–
CCC(C)(C)n1nnnc1CN(Cc1cc2cc(OC)ccc2[nH]c1=O)C1CCCC1	inconclusive [inhibitor, single point]	–
COc1ccc(NC(=O)N2CCC(C(=O)c3ccc(F)cc3)CC2)cc1	inconclusive [inhibitor, single point]	–
COc1ccc(NC(=O)CCN2CCN(c3cccc(Cl)c3)CC2)cc1	inconclusive [inhibitor, partial curve]	–
Cc1ccc(-c2c3c([nH]c(=S)c2C#N)CCCC3)o1	–	inconclusive: -35.2% [inhibitor]
COc1cc(C(=O)N(C)CC(=O)Nc2cccc(F)c2)ccc1OCc1ccccc1	inconclusive [inhibitor, single point]	–
CCCCNC(=O)C1(C)CCCCN1Cc1ccc(-c2ccccc2)cc1 (stereo unspecified)	active: 8.2 µM	–
O=C(NCCc1ccccc1C(F)(F)F)c1cc(COc2ccccc2)on1	active: 16.4 µM	–
Cc1ccc(S(=O)(=O)c2nnn3c2nc(NCc2ccc(F)cc2)c2sccc23)cc1	inconclusive [inhibitor, partial curve]	–
O=C(CSc1nnc(CNC(=O)c2cccs2)o1)c1ccccc1	inconclusive [inhibitor, single point]	–
CCCCCCCCCCCCC/C=C\[C@@H](O)[C@H](CO)NC(C)=O	inconclusive [inhibitor, partial curve, poor fit]	–
Cc1ccc(-c2ccc(/C=N/N3C(=O)C4C5C=CC(C6CC56)C4C3=O)o2)c([N+](=O)[O-])c1 (stereo unspecified)	inconclusive [inhibitor, single point]	–
CCOC(=O)Nc1ccc(Oc2ccccc2)cc1	inconclusive [inhibitor, single point]	–
O=C(CSc1ccc2ccccc2n1)c1ccc2c(c1)OCO2	inconclusive [inhibitor, single point]	–
Cc1csc(NC(=O)CSCC(=O)O)c1-c1nc2ccccc2s1	inactive	–
COc1cccc(CC2(CO)CCCN(Cc3ccccc3Cl)C2)c1 (stereo unspecified)	–	inconclusive: -30.6% [inhibitor]
